This note sets out measurements from US20240101716A1 (LA NOVA MEDICINES DEVELOPMENT, published 2024).

The chains are these.
B1: AS06778 HCAb (Fc fusion)
chain: QVQLVESGGGLVQAGGSLKLSCAASGRTFITYAMGWFRQAPGKERELVAAISWSGSSTYSADSVKGRFTISRDNAKNTVYLQMNSLKPEDTAVYYCAAEVSARTGEHLPKLMGDYWGQGTQVTVSS[skipping human IgG1 Fc]
notes: heavy chain-only antibody: sdAb fused with human Fc region
B2: AS06628 HCAb (Fc fusion)
chain: QVQLVESGGGLVQAGGSLRLSCAASGRTFITYAIGWFRQAPGKEREFVTAINWSGSMTSYADSVKGRFTISRDNNKNMVYLQMNSLKPEDTAVYYCAAHRGAIAPMTQSVYDYWGQGTQVTVSS[skipping human IgG1 Fc]
notes: as for B1
B3: AS06791 HCAb (Fc fusion)
chain: B2 chain with N75A, M78T, M83I, S85G, P88S
notes: as for B1
B4: AS06703 HCAb (Fc fusion)
chain: B2 chain with Q1E, Q13R, M78T, V93L, R100L, T107S
notes: as for B1
B5: AS11947 HCAb (Fc fusion)
chain: DVQLVESGGGLVQAGDSLRLTCSASGRTFISYAVGWFRQAPGTEREFVAGIRWNGISTDYTDSVKGRFTISRDNAKNTVYLQMNSLKPEDTAIYYCAAHRTIATIPNKYEYDHWGQGTQVTVSS[skipping human IgG1 Fc]
notes: as for B1
B6: AS11948 HCAb (Fc fusion)
chain: EVQLVESGGGLVQAGDSLRLSCVASGRTFVTYGMGWFRQAPGKEREFVAAINWSGSMTSYGDSVKGRFAISRDNAKNTVYLQMNSLKPEDTAVYYCAAALGAVVYTTREPYTYWGRGTQVTVSS[skipping human IgG1 Fc]
notes: as for B1
B7: AS06686 HCAb (Fc fusion)
chain: AVQLVESGGGLVQAGDSLRLACAASGRTFLTYALGWFRQAPGKEREFVAGVSWSGSSTKYADSVKGRFTISRDNAKNTVYMQMNSLKPEDTAVYYCAAQISAIVPISAHEYQYWGQGTQVTVSS[skipping human IgG1 Fc]
notes: as for B1
B8: AS06750 HCAb (Fc fusion)
chain: AVQLVESGGGLVQAGDSLRLSCTASGRTFLTYAVGWFRQAPGTEREFVAGIRWSGGYTDYADSVKGRFTISRDNAKNTVYLQMNSLKPEDTAVYYCAAHRTIATIPEKYEYEYWGQGTQVTVSS[skipping human IgG1 Fc]
notes: as for B1
B9: AS06775 HCAb (Fc fusion)
chain: B8 chain with A1Q, T23A, Y32L, G56S, Y57G, R100T, Q116R
notes: heavy chain-only antibody: sdAb fused with human Fc region; also called AS0775
B10: AS06618 HCAb (Fc fusion)
chain: B8 chain with A1E, G10R, Q13R, T23A, T31S, D62E, S63A
notes: as for B1
B11: AS06682 HCAb (Fc fusion)
chain: B8 chain with T31S, G56E, Y57H, D62A, R100T, E107K
notes: as for B1
B12: AS06617 HCAb (Fc fusion)
chain: DVQLVESGGGLVQAGDSLRLSCAASGRTFISYAVGWFRQAPGSEREFVAGIRWNGIHTDYADSVKGRFTISRDNAKNTVTLEMTSLKPEDTAVYYCAAHRTIATIPEKYEYEYWGQGTQVTVSS[skipping human IgG1 Fc]
notes: as for B1
B13: AS12003 HCAb (Fc fusion)
chain: B8 chain with A1E, T23A, T31S, Y57S, I105V, E107N, E112D, Y113T
notes: as for B1
B14: AS06617VH11 HCAb (Fc fusion)
chain: EVQLVESGGGLVQPGGSLRLSCAASGRTFISYAVGWFRQAPGKGREFVSGIRWSGIHTDYADSVKGRFTISRDNAKNTLYLQMNSLRPEDTAVYYCAAHRTIATIPEKYEYEYWGQGTLVTVSS[skipping human IgG1 Fc]
notes: humanized HCAb: sdAb fused with human Fc region
B15: AS06775VH11 HCAb (Fc fusion)
chain: B14 chain with I30L, S31T, Y32L, I56S, H57G, R100T
notes: humanized HCAb
B16: AS06775VH4 HCAb (Fc fusion)
chain: B14 chain with I30L, S31T, R45L, I56G, H57Y, A75S, P88A
notes: humanized HCAb

Changes are numbered by the printed parent chain.

T1 sequence (Q9NZQ7 19-290): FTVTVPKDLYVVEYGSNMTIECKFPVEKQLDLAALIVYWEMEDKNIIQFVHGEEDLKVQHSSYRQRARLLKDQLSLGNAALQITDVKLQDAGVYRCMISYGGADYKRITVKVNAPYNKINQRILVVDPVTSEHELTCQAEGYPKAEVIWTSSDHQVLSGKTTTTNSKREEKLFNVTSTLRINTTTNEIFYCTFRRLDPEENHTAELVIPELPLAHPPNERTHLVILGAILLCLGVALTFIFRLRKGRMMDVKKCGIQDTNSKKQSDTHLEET

For the first test, the target named is T1, human PD-L1 on CHO-K1 cells (human, UniProt Q9NZQ7). The test can be described thus: cell-based or functional assay.
As to B1, the “EC50 of PD-L1-based blockade assay (luciferase reporter)” value (shortened to “EC50 of PD-L1-based blockade assay”) was 5.54 nM.

With B2, the “EC50 of PD-L1-based blockade assay” value is 5.88 nM.

As for B3, the “EC50 of PD-L1-based blockade assay” value amounted to 5.82 nM.

For B4, the “EC50 of PD-L1-based blockade assay” value came to 5.59 nM.

In the case of B5, the “EC50 of PD-L1-based blockade assay” value stood at 7.55 nM.

Take B6: the “EC50 of PD-L1-based blockade assay” value was 5.8 nM.

For B7, the “EC50 of PD-L1-based blockade assay” value amounted to 7.37 nM.

In the case of B8, the “EC50 of PD-L1-based blockade assay” value is 9.98 nM.

B9: the “EC50 of PD-L1-based blockade assay” value was 5.8 nM.

Regarding B10, the “EC50 of PD-L1-based blockade assay” value came to 6.45 nM.

In the case of B11, the “EC50 of PD-L1-based blockade assay” value was 6.66 nM.

As to B12, the “EC50 of PD-L1-based blockade assay” value is 6.2 nM.

Consider B13, for which the “EC50 of PD-L1-based blockade assay” value came out at 9.34 nM.

Another test concerns the target T1, human PD-L1 on CHO-K1 cells. As to the kind of experiment: cell-based or functional assay. The source holds these as a separate data set.
With B14, the “EC50 of PD-L1-based blockade assay” value is 4.28 nM.

On to B15, for which the “EC50 of PD-L1-based blockade assay” value is 5.26 nM.

Regarding B16, the “EC50 of PD-L1-based blockade assay” value was determined as 3.43 nM.

Turning to B6, the “EC50 of PD-L1-based blockade assay” value stood at 5 nM.

Take B8: the “EC50 of PD-L1-based blockade assay” value came out at 3.6 nM.

On to B9, for which the “EC50 of PD-L1-based blockade assay” value was found to be 3.08 nM.

On to B12, for which the “EC50 of PD-L1-based blockade assay” value was 3.86 nM.

The target in another test is T2, recombinant human PD-L1 His protein (human, UniProt Q9NZQ7 in part).
T2 construct: not shown: His tag
As to the kind of experiment: SPR Biacore T200, PD-L1 His on chip, HCAb analyte. On the procedure: (§1) Affinity constant (Kd) of each sdAb and HCAb was determined by surface plasmon resonance (SPR) on a BIAcore T200 instrument. Briefly, PD-L1 His was amine-coupled to a CMS sensor chip at a density of no higher than 100 RU. […] Flow rate was 30 μl/min in all experiments. Association and dissociation phases were 5 and 10 min, respectively. The chip was regenerated using Glycine/HCl pH 1.5. Binding curves at different concentrations of sdAbs and HCAbs were used to calculate the kinetic parameters kₒₙ, koff and KD.
What is called kon is the second-order rate constant of association. Consider B1, for which the kon was 553000 M⁻¹ s⁻¹.

In general, Kd refers to the free concentration of one partner at which half of the binding sites on the other are occupied at equilibrium, for simple one-to-one binding. For orientation: koff means a measure of how fast the partners let go of each other. Regarding B2, the Kd came out at 0.0155 nM, the koff turned out to be 1.98e-05 s⁻¹ and the kon is 1.27e+06 M⁻¹ s⁻¹.

Turning to B3, the Kd worked out at 0.0683 nM, the koff was 5.33e-05 s⁻¹ and the kon was determined as 781000 M⁻¹ s⁻¹.

For the molecule B4, the kon was found to be 555000 M⁻¹ s⁻¹.

In the case of B5, the Kd was 0.31 nM, the koff worked out at 0.000226 s⁻¹ and the kon was determined as 730000 M⁻¹ s⁻¹.

Regarding B6, the Kd is 0.108 nM, the koff came to 8.25e-05 s⁻¹ and the kon came out at 761000 M⁻¹ s⁻¹.

For the molecule B7, the Kd amounted to 0.156 nM, the koff worked out at 0.000153 s⁻¹ and the kon was 979000 M⁻¹ s⁻¹.

Consider B8, for which the Kd came to 0.0392 nM, the koff turned out to be 2.81e-05 s⁻¹ and the on-rate (kon) worked out at 719000 M⁻¹ s⁻¹.

On to B9, for which the Kd was determined as 0.069 nM, the koff was 3.29e-05 s⁻¹ and the kon turned out to be 476000 M⁻¹ s⁻¹.

On to B10, for which the Kd was 0.0335 nM, the koff is 1.41e-05 s⁻¹ and the kon is 421000 M⁻¹ s⁻¹.

B11: the Kd is 0.0557 nM, the koff was determined as 3.34e-05 s⁻¹ and the kon came to 599000 M⁻¹ s⁻¹.

As to B12, the dissociation constant (Kd) came to 0.106 nM, the koff came out at 5.51e-05 s⁻¹ and the on-rate constant (kon) stood at 520000 M⁻¹ s⁻¹.

Regarding B13, the Kd turned out to be 0.434 nM, the koff was found to be 0.000247 s⁻¹ and the kon was 569000 M⁻¹ s⁻¹.

The target of the next test is T2, recombinant human PD-L1 His protein. The test can be described thus: SPR affinity ranking, PD-L1/His as ligand on chip.
T2 sequence (Q9NZQ7 19-239 limits assumed): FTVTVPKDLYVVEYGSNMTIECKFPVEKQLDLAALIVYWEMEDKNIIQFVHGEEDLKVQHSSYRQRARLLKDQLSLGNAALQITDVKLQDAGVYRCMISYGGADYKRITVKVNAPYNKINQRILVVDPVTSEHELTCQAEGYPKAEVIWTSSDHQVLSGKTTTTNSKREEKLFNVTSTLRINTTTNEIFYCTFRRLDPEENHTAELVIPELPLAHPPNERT
With B8, the Kd turned out to be 2.21 nM, the koff stood at 0.00033 s⁻¹ and the kon stood at 149000 M⁻¹ s⁻¹.

For the next test the target is unchanged. As to the kind of experiment: SPR affinity ranking, PD-L1/His as ligand on chip. The source holds these as a separate data set.
On to B6, for which the Kd came to 1.96 nM, the koff is 0.000582 s⁻¹ and the kon is 297000 M⁻¹ s⁻¹.

For the next test the target is unchanged. As to the kind of experiment: SPR affinity ranking, PD-L1/His as ligand on chip. This is another data set of the same source.
For the molecule B14, the Kd turned out to be 2.7 nM, the koff was 0.0012 s⁻¹ and the kon stood at 430000 M⁻¹ s⁻¹.

In the case of B12, the Kd came to 1.4 nM and the koff is 0.00043 s⁻¹.

The next test shares this target. As to the kind of experiment: SPR affinity ranking, PD-L1/His as ligand on chip. The source holds these as a separate data set.
On to B15, for which the Kd came to 1.6 nM, the koff was determined as 0.0005 s⁻¹ and the kon was 320000 M⁻¹ s⁻¹.

Regarding B16, the Kd was 2.92 nM, the koff worked out at 0.000716 s⁻¹ and the kon is 246000 M⁻¹ s⁻¹.

B9: the Kd stood at 1.7 nM, the koff came out at 0.00036 s⁻¹ and the kon worked out at 210000 M⁻¹ s⁻¹.

Another test shares this target. The test can be described thus: SPR Biacore T200, PD-L1 His on chip, HCAb analyte. The source holds these as a separate data set. The method, then:
Association and dissociation phases were 5 and 10 min, respectively. The chip was regenerated using Glycine/HCl pH 1.5.
As to B14, the Kd was determined as 2.7 nM, the koff is 0.0012 s⁻¹ and the kon was found to be 430000 M⁻¹ s⁻¹.

As for B15, the Kd came out at 1.6 nM, the koff was 0.0005 s⁻¹ and the kon stood at 320000 M⁻¹ s⁻¹.

With B16, the Kd was found to be 1.7 nM, the koff amounted to 0.00036 s⁻¹ and the kon is 210000 M⁻¹ s⁻¹.

In the case of B6, the Kd stood at 1.8 nM, the koff worked out at 0.00062 s⁻¹ and the kon stood at 350000 M⁻¹ s⁻¹.

As for B8, the Kd is 1.8 nM, the koff is 0.00036 s⁻¹ and the kon was determined as 200000 M⁻¹ s⁻¹.

In the case of B9, the Kd came out at 1.4 nM, the koff stood at 0.00043 s⁻¹ and the kon stood at 310000 M⁻¹ s⁻¹.

B12: the Kd worked out at 2.1 nM, the koff turned out to be 0.001 s⁻¹ and the kon came to 480000 M⁻¹ s⁻¹.

For a further test the target is unchanged. The test can be described thus: SPR Biacore T200, PD-L1 His on chip, HCAb analyte; kd outside the measurable limits. The method, then: as §1
In general terms: SPR reads the build-up and loss of mass on a sensor chip optically.
On to B1, for which the Kd is < 0.0181 nM and the koff is < 1e-05 s⁻¹.

Take B4: the Kd is < 0.018 nM and the koff is < 1e-05 s⁻¹.
